Some of the results follow. The full chains were built here from the parent and the listed change. Inactive controls read about 0.05.
B1: TEV protease; numbered along this chain (parent)
chain: MGESLFKGPRDYNPISSSICHLTNESDGHTTSLYGIGFGPFIITNKHLFRRNNGTLVVQSLHGVFKVKDTTTLQQHLVDGRDMIIIRMPKDFPPFPQKLKFREPQREERICLVTTNFQTKSMSSMVSDTSCTFPSGDGIFWKHWIQTKDGQCGSPLVSTRDGFIVGIHSASNFTNTNNYFTSVPKNFMELLTNQEAQQWVSGWRLNADSVLWGGHKVFMVKPEEPFQPVKEATQL

Variants of: B1
Experiment: raw area under fraction-flipped curve 0-4 h after induction (AUC4h, not background-subtracted), DNA-recorder readout of cleavage of the substrate (dimensionless); higher = more cleavage of the substrate by the protease variant
Conditions: temperature: 34 °C; time window: 0-4 h after rhamnose induction
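Further: Bxb1 expression induced with 0.2% (w/v) L-rhamnose at OD600 near 0.5, cultures sampled hourly, flipped fraction per protease–substrate barcode pair counted by paired-end Illumina sequencing.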

Variant | area with substrate DNLYFQS | area with substrate KNLYFQS | area with substrate LNLYFQS | area with substrate MNLYFQS | area with substrate PNLYFQS | area with substrate QNLYFQS | area with substrate TNLYFQS | area with substrate GNLYFQS | area with substrate RNLYFQS | area with substrate SNLYFQS | area with substrate YNLYFQS | area with substrate FNLYFQS | area with substrate HNLYFQS | area with substrate INLYFQS | area with substrate WNLYFQS | area with substrate NNLYFQS | area with substrate VNLYFQS
G138D | 0.0884 | 0.0601 | 0.061 | 0.0767 | 0.0642 | 0.0658 | 0.0748 | – | – | – | – | – | – | – | – | – | –
H143I | 0.0854 | 0.0737 | 0.0518 | – | – | – | – | 0.0661 | 0.0581 | 0.0689 | 0.0591 | – | – | – | – | – | –
H143T | 0.0724 | 0.0705 | – | 0.0525 | 0.0712 | – | – | 0.0615 | 0.0705 | – | 0.0546 | 0.0405 | 0.0571 | 0.0645 | 0.0663 | – | –
F187W | 0.0613 | 0.0771 | 0.0109 | 0.0626 | 0.062 | – | 0.0582 | 0.0471 | 0.061 | 0.0522 | 0.0592 | 0.0576 | 0.0519 | 0.0497 | 0.0619 | 0.0711 | –
F187L | 0.0592 | – | – | – | 0.0768 | – | 0.057 | – | – | 0.0615 | 0.0531 | – | 0.0602 | – | 0.0421 | 0.0735 | –
S169G | 0.0523 | 0.0632 | 0.0565 | 0.0691 | 0.0636 | – | 0.064 | – | – | 0.0568 | 0.0559 | 0.0627 | 0.057 | 0.0514 | 0.0585 | – | –
S169Q | 0.0562 | 0.07 | 0.0646 | 0.0704 | 0.0578 | – | 0.0581 | 0.0557 | – | 0.0662 | 0.065 | 0.0555 | 0.0575 | 0.0676 | 0.0566 | 0.0499 | 0.0525
I139H | 0.0573 | – | – | – | – | – | 0.0601 | – | – | – | – | – | 0.0616 | – | – | – | –
I139D | 0.0817 | 0.0649 | 0.0551 | – | – | – | 0.0589 | 0.0644 | – | 0.0617 | 0.0433 | – | – | – | – | – | 0.06
I139E | 0.083 | 0.0586 | – | – | – | – | 0.0705 | 0.0953 | 0.0551 | 0.0587 | 0.0586 | 0.0554 | 0.0568 | – | – | 0.0629 | –
I139L | 0.0752 | 0.0701 | 0.0675 | 0.056 | 0.0562 | – | – | 0.0671 | – | 0.073 | 0.0472 | 0.0633 | 0.0694 | – | – | – | 0.0842
I145H | 0.0952 | – | – | – | – | 0.0548 | 0.0576 | – | – | – | 0.0686 | – | 0.0609 | – | 0.0644 | – | 0.0667
I145W | 0.0914 | 0.0542 | 0.0462 | 0.0594 | 0.0571 | – | – | – | 0.0737 | – | 0.0627 | 0.0519 | 0.058 | – | 0.051 | 0.0516 | –
M188D | 0.0676 | 0.0585 | – | 0.0616 | 0.0278 | – | 0.0682 | 0.0528 | 0.0747 | 0.0571 | – | 0.0631 | 0.0728 | 0.0611 | 0.0534 | 0.0695 | –
N178T | 0.0804 | 0.0466 | 0.0596 | – | 0.0723 | – | 0.0773 | 0.0617 | – | – | 0.0392 | 0.0497 | 0.0552 | 0.064 | 0.0475 | – | –
N178F | 0.204 | 0.0917 | – | – | 0.0929 | 0.0814 | 0.133 | – | – | 0.102 | 0.0872 | 0.0995 | 0.103 | 0.132 | – | – | –
T129S | 0.121 | 0.0901 | 0.0707 | 0.0626 | 0.0658 | 0.0974 | 0.0563 | – | – | 0.0665 | 0.0428 | 0.0523 | 0.0783 | 0.0489 | 0.0454 | 0.0659 | 0.0613

Variant | area with substrate DNLYFQS | area with substrate KNLYFQS | area with substrate LNLYFQS | area with substrate MNLYFQS | area with substrate PNLYFQS | area with substrate QNLYFQS | area with substrate TNLYFQS | area with substrate GNLYFQS | area with substrate RNLYFQS | area with substrate SNLYFQS | area with substrate YNLYFQS | area with substrate FNLYFQS | area with substrate HNLYFQS | area with substrate INLYFQS | area with substrate WNLYFQS | area with substrate NNLYFQS | area with substrate VNLYFQS
T129Y | 0.0715 | – | 0.0583 | – | – | – | 0.0551 | – | – | – | – | – | – | 0.0596 | 0.0445 | – | –
T132W | 0.0669 | – | 0.0559 | 0.0534 | – | – | 0.06 | 0.0716 | – | – | 0.031 | 0.0559 | – | 0.0595 | 0.082 | – | –
T132L | 0.0703 | – | 0.0598 | – | 0.0714 | 0.0697 | 0.0556 | 0.067 | – | 0.0704 | 0.056 | – | 0.0708 | 0.0402 | – | – | –
T132H | 0.0669 | – | 0.0461 | – | 0.0667 | – | 0.0505 | – | – | – | 0.0562 | 0.0457 | 0.0585 | – | 0.0573 | – | –
T132P | 0.0654 | 0.0619 | – | 0.057 | 0.0552 | 0.0669 | 0.0552 | – | – | 0.0492 | 0.0662 | – | 0.0713 | 0.0611 | 0.0628 | – | –
S171P | 0.0662 | – | 0.0577 | 0.067 | 0.0643 | – | 0.0593 | – | – | – | 0.0394 | 0.0613 | 0.0582 | 0.0523 | 0.0603 | 0.0547 | –
S171D | 0.0595 | – | – | – | 0.0621 | 0.0586 | 0.035 | 0.057 | 0.0645 | 0.0562 | – | 0.0526 | 0.0613 | 0.0556 | – | – | –
E189W | 0.0774 | 0.0721 | – | 0.0856 | – | – | 0.0711 | – | – | 0.0565 | 0.0741 | 0.0717 | 0.0838 | 0.041 | 0.0632 | – | –
E189P | 0.0681 | 0.0927 | – | 0.0931 | 0.0706 | – | – | 0.048 | – | – | 0.0554 | – | 0.0229 | 0.0623 | 0.0603 | 0.071 | 0.0653
Q151A | 0.0597 | 0.0666 | 0.0586 | 0.0434 | 0.0644 | – | 0.0987 | – | – | – | – | – | 0.0557 | 0.0507 | – | 0.06 | –
S158M | 0.0449 | 0.0521 | 0.0619 | 0.0586 | 0.0578 | – | 0.0549 | 0.0546 | 0.0494 | – | 0.0316 | – | 0.0744 | 0.0439 | – | – | –
S158W | 0.0592 | 0.0528 | 0.056 | 0.0565 | 0.0457 | – | 0.0392 | – | – | 0.0428 | 0.0271 | 0.0449 | 0.0637 | 0.0474 | 0.0455 | 0.0305 | 0.0536
S158R | 0.0534 | 0.0592 | 0.0476 | – | 0.0639 | – | – | – | – | – | – | 0.0417 | 0.036 | – | – | – | –
K185Q | 0.0798 | – | – | 0.0589 | 0.0637 | – | 0.0722 | 0.0627 | 0.0735 | – | 0.0651 | – | 0.074 | 0.0632 | 0.0625 | – | –
K185W | 0.0813 | 0.0674 | 0.061 | 0.0415 | 0.0669 | 0.0496 | 0.0613 | 0.0711 | – | 0.0615 | 0.0629 | 0.0539 | 0.0611 | 0.0688 | 0.0652 | – | 0.0575
P134I | 0.0616 | 0.0644 | – | – | 0.0567 | – | 0.0691 | – | – | 0.0556 | – | – | 0.0498 | 0.0432 | 0.0417 | 0.0736 | 0.0765
P134K | 0.0771 | 0.0903 | – | 0.077 | 0.0654 | – | – | – | – | 0.0536 | – | – | – | 0.0568 | – | 0.0821 | 0.0678

From the supplement of paper PMC12217912
